A lower IC50 marks a more sensitive line; where the fit passes the top or lowest dose, that dose stands as a limit. AUC is the area under the same curve over the 256-fold range up to the top dose, as a fraction; it is 1 without any effect and falls as sensitivity rises. Where the top dose is marked as inferred, it was derived from the fitted curves, not read from the paper.
Compound: COc1ncc(-c2ccc3nccc(-c4ccnnc4)c3c2)cc1NS(=O)(=O)c1ccc(F)cc1F [GSK2126458]
Test: Viability of human cancer cell lines after 72 h of drug (GDSC screen)
Settings: top dose inferred
Experimental: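 Human cancer cell lines in 384-well plates, medium with 10% serum, drug for 72 h over a 256-fold dose range (nine 2-fold or five 4-fold steps up to the top dose). Adherent lines were fixed and stained with the nucleic acid dye Syto60, suspension lines read with resazurin; signal relative to control wells, capped at 0 and 100%. One two-parameter sigmoid per drug and line, fitted in a mixed model over all curves with the slope shared within a line.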

| Cell Line | AUC | IC50 [nM] |
| --- | --- | --- |
| 8-MG-BA (glioma, adherent, top dose 0.128 µM) | 0.586 | 13.5 |
| 22RV1 (prostate, adherent, top dose 0.128 µM) | 0.6 | 16.1 |
| 42-MG-BA (glioma, adherent, top dose 0.128 µM) | 0.835 | 92.8 |
| 201T (lung adenocarcinoma, adherent, top dose 0.128 µM) | 0.815 | 93.7 |
| 451Lu (melanoma, adherent, top dose 0.128 µM) | 0.908 | > 128 |
| 639-V (bladder, adherent, top dose 0.128 µM) | 0.982 | > 128 |
| 647-V (bladder, adherent, top dose 0.128 µM) | 0.936 | > 128 |
| 697 (lymphoblastic leukaemia, suspension, top dose 0.128 µM) | 0.161 | 1.01 |
| 769-P (kidney, adherent, top dose 0.128 µM) | 0.748 | 44.5 |
| 786-0 (kidney, adherent, top dose 0.128 µM) | 0.759 | 41.4 |
| 5637 (bladder, adherent, top dose 0.128 µM) | 0.621 | 16.6 |
| 8305C (thyroid, adherent, top dose 0.128 µM) | 0.934 | > 128 |
| 8505C (thyroid, adherent, top dose 0.128 µM) | 0.805 | 69.1 |
| 23132-87 (stomach, adherent, top dose 0.128 µM) | 0.621 | 17.5 |
| A3-KAW (B-cell lymphoma, suspension, top dose 0.128 µM) | 0.626 | 16.5 |
| A4-Fuk (B-cell lymphoma, suspension, top dose 0.128 µM) | 0.945 | > 128 |
| A101D (melanoma, adherent, top dose 0.128 µM) | 0.981 | > 128 |
| A172 (glioma, adherent, top dose 0.128 µM) | 0.722 | 33.1 |
| A204 (rhabdomyosarcoma, adherent, top dose 0.128 µM) | 0.652 | 24 |
| A253 (head and neck, adherent, top dose 0.128 µM) | 0.844 | 88.1 |
| A375 (melanoma, adherent, top dose 0.128 µM) | 0.983 | > 128 |

| Cell Line | AUC | IC50 [nM] |
| --- | --- | --- |
| A388 (skin, adherent, top dose 0.128 µM) | 0.623 | 18.4 |
| A427 (non-small cell lung carcinoma, adherent, top dose 0.128 µM) | 0.965 | > 128 |
| A431 (skin, adherent, top dose 0.128 µM) | 0.532 | 9.74 |
| A498 (kidney, adherent, top dose 0.128 µM) | 0.925 | > 128 |
| A673 (rhabdomyosarcoma, adherent, top dose 0.128 µM) | 0.888 | 119 |
| A704 (kidney, adherent, top dose 0.128 µM) | 0.972 | > 128 |
| A2058 (melanoma, adherent, top dose 0.128 µM) | 0.83 | 69 |
| A2780 (ovary, semi-adherent, top dose 0.128 µM) | 0.27 | 1.72 |
| ABC-1 (lung adenocarcinoma, adherent, top dose 0.128 µM) | 0.54 | 10.5 |
| ACHN (kidney, adherent, top dose 0.128 µM) | 0.814 | 82.1 |
| AGS (stomach, adherent, top dose 0.128 µM) | 0.858 | 87.9 |
| ALL-PO (lymphoblastic leukaemia, suspension, top dose 0.128 µM) | 0.326 | 2.53 |
| ALL-SIL (T-cell leukaemia, suspension, top dose 1.024 µM) | 0.251 | 14 |
| AM-38 (glioma, semi-adherent, top dose 0.128 µM) | 0.691 | 27.8 |
| AMO-1 (haematopoietic neoplasm, suspension, top dose 0.128 µM) | 0.483 | 7.23 |
| AN3-CA (endometrium, adherent, top dose 0.128 µM) | 0.564 | 12.2 |
| ARH-77 (myeloma, suspension, top dose 0.128 µM) | 0.325 | 2.65 |
| ASH-3 (thyroid, adherent, top dose 0.128 µM) | 0.884 | > 128 |
| ATN-1 (T-cell lymphoblastic leukaemia, suspension, top dose 1.024 µM) | 0.339 | 23.7 |
| AU565 (breast, adherent, top dose 0.128 µM) | 0.729 | 39 |
| AsPC-1 (pancreas, adherent, top dose 0.128 µM) | 0.777 | 96.5 |

| Cell Line | AUC | IC50 [nM] |
| --- | --- | --- |
| BB30-HNC (head and neck, adherent, top dose 0.128 µM) | 0.519 | 9.01 |
| BB49-HNC (head and neck, adherent, top dose 0.128 µM) | 0.956 | > 128 |
| BB65-RCC (kidney, adherent, top dose 0.128 µM) | 0.879 | > 128 |
| BC-1 (B-cell lymphoma, suspension, top dose 0.128 µM) | 0.737 | 33.4 |
| BC-3 (B-cell lymphoma, suspension, top dose 0.128 µM) | 0.542 | 10.3 |
| BCPAP (thyroid, adherent, top dose 0.128 µM) | 0.759 | 40.9 |
| BE2-M17 (neuroblastoma, adherent, top dose 0.128 µM) | 0.888 | > 128 |
| BE-13 (lymphoblastic leukaemia, suspension, top dose 0.128 µM) | 0.864 | 100 |
| BEN (non-small cell lung carcinoma, adherent, top dose 0.128 µM) | 0.805 | 76.2 |
| BFTC-905 (bladder, adherent, top dose 0.128 µM) | 0.677 | 23 |
| BFTC-909 (kidney, adherent, top dose 0.128 µM) | 0.964 | > 128 |
| BHT-101 (thyroid, adherent, top dose 0.128 µM) | 0.839 | 90.9 |
| BHY (head and neck, adherent, top dose 0.128 µM) | 0.636 | 19.1 |
| BICR10 (head and neck, adherent, top dose 0.128 µM) | 0.934 | > 128 |
| BICR22 (head and neck, adherent, top dose 0.128 µM) | 0.487 | 7.34 |
| BICR31 (head and neck, adherent, top dose 0.128 µM) | 0.776 | 51.7 |
| BICR78 (head and neck, adherent, top dose 0.128 µM) | 0.873 | > 128 |
| BL-41 (Burkitt lymphoma, suspension, top dose 0.128 µM) | 0.22 | 1.58 |
| BPH-1 (prostate, adherent, top dose 0.128 µM) | 0.409 | 4.37 |
| BT-20 (breast, adherent, top dose 0.128 µM) | 0.628 | 19.7 |
| BT-483 (breast, adherent, top dose 1.024 µM) | 0.503 | 65.7 |

| Cell Line | AUC | IC50 [nM] |
| --- | --- | --- |
| BV-173 (chronic myeloid leukaemia, suspension, top dose 0.128 µM) | 0.758 | 39.7 |
| Becker (glioma, adherent, top dose 0.128 µM) | 0.591 | 14.7 |
| BxPC-3 (pancreas, adherent, top dose 0.128 µM) | 0.799 | 70.3 |
| C2BBe1 (large intestine, adherent, top dose 0.128 µM) | 0.572 | 12.9 |
| C3A (liver, adherent, top dose 0.128 µM) | 0.988 | > 128 |
| C32 (melanoma, adherent, top dose 0.128 µM) | 0.934 | > 128 |
| C-4-I (cervix, adherent, top dose 0.128 µM) | 0.972 | > 128 |
| C-33-A (cervix, adherent, top dose 0.128 µM) | 0.836 | 85.3 |
| CA46 (Burkitt lymphoma, suspension, top dose 0.128 µM) | 0.434 | 5.22 |
| CADO-ES1 (Ewing sarcoma, suspension, top dose 0.128 µM) | 0.623 | 17.5 |
| CAKI-1 (kidney, adherent, top dose 0.128 µM) | 0.707 | 41.4 |
| CAL-12T (non-small cell lung carcinoma, adherent, top dose 0.128 µM) | 0.48 | 7 |
| CAL-27 (head and neck, adherent, top dose 0.128 µM) | 0.815 | 71.7 |
| CAL-29 (bladder, adherent, top dose 0.128 µM) | 0.588 | 14.2 |
| CAL-33 (head and neck, adherent, top dose 0.128 µM) | 0.423 | 4.94 |
| CAL-39 (cervix, adherent, top dose 0.128 µM) | 0.91 | > 128 |
| CAL-51 (breast, adherent, top dose 0.128 µM) | 0.878 | 99.8 |
| CAL-54 (kidney, adherent, top dose 0.128 µM) | 0.936 | > 128 |

From the supplement of paper PMC4967469
